Laboratory results as given in the RNAGym collection of RNA variant scans (doi:10.7554/elife.90254).
The source gives no read counts; variants with many changes may rest on few reads.

B1: LINE1-mini (parent)
chain: GGCAGAGCUCAACACAGCGUGGCAAAGUGGCUGUGGCUAGACUGCC

Variants of: B1
Experiment: self-cleavage, relative activity (ratio to wild type); higher = more cleavage; in vitro, sequencing; the parent is a self-cleaving ribozyme

Variant | self-cleavage
GGCAAAGCUCAACACGGCGUGGCAUAGUGGCUGUGGCUAGACUGCC [G5A A16G A25U] | 0.12
GGCACAGCUCAACACAGCUUGGCAAAGUGGCUGUAGCUAGACUGCC [G5C G19U G35A] | 0.02
GGCAGAGCUAAACAUAGCGUGGCAAAGUGGCUGUGGAUAUACUGCU [C10A C15U C37A G40U C46U] | 0.03
GGGUGAGCUCAACACAGCGUGGCAUAGUGGCUGUGGCUAGACUGCC [C3G A4U A25U] | 0.21
GGCCGAGCUCAGCACACCGUGGCAAAGUGGCUGUGGCUUGACUGCC [A4C A12G G17C A39U] | 0.01
GGCAGAACGCAACACAGCGUGGCAAAGUGGCUGGGGCUAGCCUGCC [G7A U9G U34G A41C] | 0.04
GGCAGUACUGAACACAGCGUGGCAAAGUGGCUAUGGCUGGACUGCC [A6U G7A C10G G33A A39G] | 0
GGCAGAGCUCAACUCAGCGUCGUAAAGAGGCUGUGGUUAGACUGCC [A14U G21C C23U U28A C37U] | 0.03
GGCCAAGCUCAACACAGCGUGGCAAAGUGGCUGUAGCUAGACUGCC [A4C G5A G35A] | 0.06
GGCAGAGCUCAACACAGCGUGGCAAAGUGGCUGGGGGUAAACUGCC [U34G C37G G40A] | 0.05
GGCAGAGCUUAACACAGCGUGGAAAAGUGGCUGUGGCUGGACUGCC [C10U C23A A39G] | 0.05
GGUAGAGCCCAACAUGUAGUGGCAAAGUGACUGUGGCUAGACUGCC [C3U U9C C15U A16G G17U C18A G30A] | 0.03
GGCAGACCUCAACACAGAGUGGAAAUGUCGCUAUGGCUAGACUGCC [G7C C18A C23A A26U G29C G33A] | 0.01
GGGAGAGCUCAACACAGCGUGGCAAAGAGGCUGUGGCUAGAUUGCC [C3G U28A C42U] | 0.12
GGCCGAGCUUAGCACAGCGUGGAAAAGUGGCUGUGGCUAGACUGCC [A4C C10U A12G C23A] | 0.03
GGCAGAGCUUAACACAGCGUGGCUAGGUGGAUGUGGCUAGACUGCC [C10U A24U A26G C31A] | 0.03
GGCAGAGCUCAACGCAGCGUGGCAGAGUGGCUGUGUCUAGACUGCC [A14G A25G G36U] | 0.09
CGCAGUGCUCAACUCAGGGCGGCAAAGUGGCUGUGGCUAGACUGCC [G1C A6U A14U C18G U20C] | 0.01
GGCAGAGCUCAACACAGCGUGGCAAAGUGGCAGUGGCUAGACAGCA [U32A U43A C46A] | 0

Variant | self-cleavage
GGCAUAUCUCACCACAGCGUGGCACAGUGGCUGUGGCUAGACUGCC [G5U G7U A12C A25C] | 0.02
GGCAGAGCUCAUCACAGCGUGGCACAGUGUCUGUGGCUAGAAUGAC [A12U A25C G30U C42A C45A] | 0.02
GGCAGAGCUCAACACAGCAUCGCAAAGUCGCUGUGGCUAGACAGCC [G19A G21C G29C U43A] | 0.02
UGCAGAGAUCAACACAGCGUGGCAAAGUGGCCGUGGCUAGACUGCC [G1U C8A U32C] | 0.04
UGCAAAGCUCCACACAGCGUGGCAAAGUGGCUGUGGCUAGACUGCC [G1U G5A A11C] | 0.02
GACAGAGAUCAACACAGCGUGGCAAACUGCCUGAUGCUAGACUGCC [G2A C8A G27C G30C U34A G35U] | 0.05
GGCAGAGCUCUACACAGCGUGGCAAAGUCUCUGUGGCUAGACUGCC [A11U G29C G30U] | 0.01
GGCAGAGAUCAACACAGCGCGGCAAAGUGGCAGUGGCUAGACUGCC [C8A U20C U32A] | 0.03
GGCAGAGCUCUACACAGCGUGGCAAAGUGGUUGUGGCUAUACUGCC [A11U C31U G40U] | 0.03
GGCAGAGCUCAACACAGAGUGGCAAAAUGGCCGUGGCUAGACUGCC [C18A G27A U32C] | 0.15
GGCAGAGCUCAACACAGGGUGGCAAUAUUGCUGUGGCUAGACUGCC [C18G A26U G27A G29U] | 0.05
GGCAGGGCUCAUCACAGCGUGGCAAAGUUGCUGUGGCUAGACUGCC [A6G A12U G29U] | 0.09
GGCAGAGCUCAACACAGCGUGGCAAAGUGGCUGGGGCUAGGCUACC [U34G A41G G44A] | 0.02
GGCAGAGCUAAACAAAGCGUGGCAAAGUGGUUGUGGCUAGGCUGCC [C10A C15A C31U A41G] | 0.01
GGCCGAGCUCAACAGAGCGUGGCAAAGUGUCUGUGGCUAGACUGCC [A4C C15G G30U] | 0.01
GGCAGAGCUCAACACAGCGUGACAAAGCGGCUGUAGCUAGACUGCC [G22A U28C G35A] | 0.19
UGCAGAGCUCAACACAGUGUGGCAAAGUGGCUGUGGCUACACUGCC [G1U C18U G40C] | 0.01
GGCAGAGAUCAACACAGCUUGGCAAAGUGGCUGUGGCUAGACGACA [C8A G19U U43G G44A C46A] | 0.06
GGCAGAGCACAACACAGCGUGGCAAAGUGUCUGUGGCUAGACUGCG [U9A G30U C46G] | 0.07

Variant | self-cleavage
UGAAGAGCUCACCACAGCGUGGCAAAGUGGCGGUGGCUCAACUGCC [G1U C3A A12C U32G A39C G40A] | 0.02
GGCAGGGCUCAACACAGCGUGGCAAAGUGGCUGUGGUUAGACAGCC [A6G C37U U43A] | 0.01
GGCAGAGCUGAACACAGCGUGUCAAAGUGGCUGUAGGGAGACUGCC [C10G G22U G35A C37G U38G] | 0.01
GGCAAACCUCAACACAGCGUUGCAAAGUGGCUGUGGCUAGACUGCC [G5A G7C G21U] | 0.12
GGCAGAGCUCAAGACAGCGUGGCAACGAGGCUUUGGCUAGACUGCC [C13G A26C U28A G33U] | 0.08
GGCAAAGCUCAACACAGCGUGGCAAAGUGGCUGUGUCUAGACUGCA [G5A G36U C46A] | 0.05
GGCCAAGCUCAAUACAGCGUGGCAAAGUGGCUGUGGCUAGACUGCC [A4C G5A C13U] | 0.04
AGCAGAGCUCAACACAGCGUGGCAAUAUGUCUGCGGCUAGACUGCC [G1A A26U G27A G30U U34C] | 0.11
GGCAUAGCUCAACACAACGUGGCUAAGUGGCUGUGUCUAGACUGCC [G5U G17A A24U G36U] | 0.03
GGCAGCGCUCAACACAGCGUGGCAAAGUGGCUGUCGUUAGACUGAC [A6C G35C C37U C45A] | 0.02
UGCAGAGCUCAACACAGCGUCGCAAAGUGGCUCUUGCUAGACUGGC [G1U G21C G33C G35U C45G] | 0.02
GGCAGAGCUCAACACAGUUUGGCAAAGUGGCAGUUGCUAGAUUCCC [C18U G19U U32A G35U C42U G44C] | 0.02
UGCAGAGCUCAACACAGCGUUGCAAAGUGGCUGUGGCUAGAGUGCC [G1U G21U C42G] | 0.03
GGCAGAGCUCAACACAGCGUGGCGAAGUGGCUGUGGCUAGAAUGUC [A24G C42A C45U] | 0.3
GACAGAGCUCACAACAGCGUGGCAAAGUGGCUGUGGCUAGACUGCC [G2A A12C C13A] | 0.11
GGCAGAGCUCAAUACCGCGUGGCAAAGUGACUGUGGCUAGACAGCC [C13U A16C G30A U43A] | 0.04
AGCAGAGCUCAACAUAGCGUGGCCAACCGGCUGUGGCUAGACUGCC [G1A C15U A24C G27C U28C] | 2.51
GGCAGACCUCAACACAGCGUGGCAAAAUGGCUGUGGCUAGACAGCC [G7C G27A U43A] | 0.02
